Assay results published in ChEMBL document CHEMBL4888484, “Replenishing the malaria drug discovery pipeline: Screening and hit evaluation of the MMV Hit Generation Library 1 (HGL1) against asexual blood stage Plasmodium falciparum ,using a nano luciferase reporter read-out” (2022).
In all, about 150,000 compounds went through this assay and about 540 (0.36%) showed an effect of 50% or more. The list shows a part of the results.

Each molecule was assayed on Plasmodium falciparum (assay: Primary screen in NF54 nanoGlo assay, in single point, at 2uM, 72h; a lower Z score goes with more inhibition). Conditions: timepoint 72 hour.
Type: functional, Erythrocyte
In the case of `NC(=O)Cn1cc(Nc2ccc(C(F)(F)F)cn2)cn1`, the “% Inhibition” value is reported as 4% and the Z score is reported as -0.49. With `CC(C#N)(NC(=O)CN1CCCC2(CC=CCC2)C1)C1CC1` (configuration not stated) the “% Inhibition” value was -2% and the Z score was 0.2. With `CCOc1ccc(NC2=NCCC2)cc1` the “% Inhibition” value was -13% and the Z score was 1.56. With `Cc1cc(N[C@H]2CCc3ccccc3NC2=O)nc(C)n1` the “% Inhibition” value was 4% and the Z score was -0.57. With `CCNC(=O)CCC(=O)N1CCc2ncc(C(F)(F)F)cc2C1` the “% Inhibition” value was -1% and the Z score was 0.1. With `COc1cc(C(=O)N(C)C)ccc1NC(=O)N1CCC[C@@H]1CN1CCOCC1` the “% Inhibition” value was -2% and the Z score was 0.28. For `O=C1CC(c2ccc(Cl)cc2)CC(=O)N1Cc1ccc(F)cc1`, the “% Inhibition” value was -1% and the Z score was 0.22. With `C[C@]1(/[N+]([O-])=C/c2cccc(Cl)c2)CCCCC1=O` the “% Inhibition” value was -7% and the Z score was 0.82. For `N#CC1(NC(=O)c2ccc3ccccc3c2)CCCCC1`, the “% Inhibition” value was 5% and the Z score was -0.45. With `NC(=O)[C@H]1CCCN(Cc2ccc3c(c2)CN(Cc2cccc(C(F)(F)F)c2)CCO3)C1` the “% Inhibition” value was -4% and the Z score was 0.54. With `Cc1ccc(-c2ccc3nn(Cc4cccc(F)c4)c(=O)n3n2)cc1C` the “% Inhibition” value was -12% and the Z score was 1.51. For `Cc1cc(C(=O)NCC2(COc3ccccc3)CC2)nc(N)n1`, the “% Inhibition” value was 15% and the Z score was -2. `O=C(NCC[C@H]1CCc2ccccc2N1)c1ncoc1-c1ccon1` was tested, and the “% Inhibition” value was 14% and the Z score was -1.79. For `Cc1ncccc1OCC(=O)NCc1ccc(Cl)s1`, the “% Inhibition” value was 28% and the Z score was -3.8. For `Cc1cccc([C@@H]2CCCCN2C2CCOCC2)c1C`, the “% Inhibition” value was -10% and the Z score was 0.96. For `CCn1c(-c2cc(NC(=O)c3cc(C)cc(C)c3)[nH]n2)cc2ccc(OC)cc21`, the “% Inhibition” value was 17% and the Z score was -1.96. `O=S(=O)(c1ccsc1)N1CC2CCC(C1)O2` was tested, and the “% Inhibition” value was -9% and the Z score was 0.75. For `COCC[C@H](NC(=O)c1cnc2c(c1)ncn2C)C(C)C`, the “% Inhibition” value was 28% and the Z score was -3.81. With `Cc1csc(CNc2cccc(CN3CC(C)OC(C)C3)c2)n1` (configuration not stated) the “% Inhibition” value was -11% and the Z score was 1.42. `O=C(Cn1cnc2ccccc2c1=O)c1ccc2c(c1)OCCO2` was tested, and the “% Inhibition” value was -6% and the Z score was 1.25. With `CCC[C@H]1CN(S(C)(=O)=O)C[C@@H]1NC(=O)c1ccc(C)n(C)c1=O` the “% Inhibition” value was -6% and the Z score was 0.85. With `c1ccc2oc(CN3CCOC4CCCCC43)nc2c1` (configuration not stated) the “% Inhibition” value was 2% and the Z score was -0.22. For `Cn1cc(C(=O)NCCOc2ccc3ccccc3n2)cn1`, the “% Inhibition” value was 41% and the Z score was -4.63. For `O=C(NCc1ccc(N2CCCC2)cc1)c1cccc(S(=O)(=O)N2CCOCC2)c1`, the “% Inhibition” value was -10% and the Z score was 1.7. In the case of `CCc1cccc(Nc2c(C(=O)OC(C)C)cnc3nc(C)ccc23)c1`, the “% Inhibition” value is reported as -7% and the Z score is reported as 0.87. For `CCOc1ccccc1CN1CCN(Cc2nnc(C)s2)[C@@H](C)C1`, the “% Inhibition” value was -20% and the Z score was 1.8. With `CC(C)(C)CN1CCN(S(C)(=O)=O)CC1` the “% Inhibition” value was -1% and the Z score was 0.12. For `CCOC1CC(CC(=O)Nc2cc(-c3cccc(F)c3)on2)C1` (configuration not stated), the “% Inhibition” value was -8% and the Z score was 1.45. In the case of `Nc1c(C(=O)c2ccco2)oc2ccccc12`, the “% Inhibition” value is reported as 4% and the Z score is reported as -0.39. In the case of `CCCC[C@@H](C(=O)Nc1cc(C)on1)N1CC(n2cc(C)cn2)C1`, the “% Inhibition” value is reported as -6% and the Z score is reported as 0.82. In the case of `C[C@]1(Cc2cccc(F)c2)CCCN1C(=O)c1cc(C(N)=O)c[nH]1`, the “% Inhibition” value is reported as -1% and the Z score is reported as 0.25. With `Cc1ccc2c(c1)C(=O)N(CCC(=O)N1C3CCC1CC(=O)C3)C2=O` the “% Inhibition” value was -6% and the Z score was 0.93. `COCc1nccc(NC[C@H]2CCN(c3ccccc3)C2)n1` was tested, and the “% Inhibition” value was -5% and the Z score was 0.72. `Cn1nc(C2CCC2)n(CC(F)(F)F)c1=O` was tested, and the “% Inhibition” value was -16% and the Z score was 2.36. In the case of `Cn1cc(CN(CC2CC2)C2CCC2)cn1`, the “% Inhibition” value is reported as -8% and the Z score is reported as 0.71. With `CCCOc1ccccc1OC(=O)c1ccc(Cl)c(N2CCCC2=O)c1` the “% Inhibition” value was 10% and the Z score was -1.28. For `c1ccc([C@H](CCn2cncn2)Nc2ncncn2)cc1`, the “% Inhibition” value was -4% and the Z score was 0.7. For `CCOCCO[C@@H](C)C(=O)N(C)C1CCN(Cc2ccncc2)CC1`, the “% Inhibition” value was -7% and the Z score was 1.04. With `C[C@@]1(C2CC2)COCCN1C(=O)Cn1cnc(-c2ccccc2)n1` the “% Inhibition” value was 5% and the Z score was -1.07. For `CC[C@@H](C#N)NS(=O)(=O)c1sc2ccccc2c1Cl`, the “% Inhibition” value was 1% and the Z score was -0.13. In the case of `Cc1cc(C(=O)Nc2ccc3[nH]c(-c4ccco4)nc3c2)cnn1`, the “% Inhibition” value is reported as -8% and the Z score is reported as 1.01. In the case of `CCn1nncc1CNC(=O)[C@@H](CN)C1CCCCCC1`, the “% Inhibition” value is reported as -1% and the Z score is reported as 0.25. `CCCCNC(=O)c1cc(NC(=O)CC2CCCC2)cc2nc([C@@H]3CCCO3)n(C)c12` was tested, and the “% Inhibition” value was -1% and the Z score was 0.25. With `C[C@@H](NC(=O)NC[C@H]1C[C@@H]1c1ccccc1)c1cncc(F)c1` the “% Inhibition” value was 5% and the Z score was -1.02. With `CCCc1noc(CCC(=O)NC[C@H](C)N2CCc3ccccc32)n1` the “% Inhibition” value was -17% and the Z score was 2.18. In the case of `COc1cccc(C2=NS(=O)(=O)N(C)C(C(=O)N3CCOCC3)=C2)c1`, the “% Inhibition” value is reported as -3% and the Z score is reported as 0.48. In the case of `CN(C(=O)Nc1scnc1C1CC1)[C@H]1CCCC[C@H]1C(F)(F)F`, the “% Inhibition” value is reported as 2% and the Z score is reported as -0.36. With `COC(=O)[C@H](N)c1cccc(C(F)(F)F)c1` the “% Inhibition” value was 0% and the Z score was 0.01. `COC(=O)CNC(=O)c1nccnc1N` was tested, and the “% Inhibition” value was 7% and the Z score was -0.99. With `CCn1ccc2c(CN(C)C[C@H]3CCOC3)cccc21` the “% Inhibition” value was -18% and the Z score was 1.66. For `O=C1C[C@H](Nc2ccc3c(c2)CCC3)C(=O)N1CCc1ccccc1`, the “% Inhibition” value was -6% and the Z score was 0.93. With `CN1CCC[C@H](CCC(=O)N2CCNC(=O)C23CCCCC3)C1` the “% Inhibition” value was -5% and the Z score was 0.99. With `COc1cccc(-c2cc(C(F)(F)F)nc(-n3nc(-c4cccc(C)c4)cc3-c3cccc(C)c3)n2)c1` the “% Inhibition” value was -10% and the Z score was 1.81. With `CCCCOCCN(C(=O)COC[C@H]1CCCO1)c1cccc(Br)c1` the “% Inhibition” value was -2% and the Z score was 0.24. `O=C(c1ccccc1)c1ccc2n1CC[C@H]2C(=O)N1CCN(c2ncccn2)CC1` was tested, and the “% Inhibition” value was 29% and the Z score was -3.31. In the case of `CC1(C)CC(=O)CC(C)(C)N1[C@@H](O)C(Cl)(Cl)Cl`, the “% Inhibition” value is reported as -11% and the Z score is reported as 1.54.
